In publication PMC10526779:
Changes are numbered by the printed parent chain. Names may count otherwise. These are yes or no findings as the source states them, for the method shown. Binding seen in cells or lysates may run through a third protein. Some results given as binding are weak or reduced against the parent protein; the word gives no strength. Tags and fused reporters may be left off the sequences shown. One block for each binder: values may come before it.

Tests used:
GFP-R3A (human) = biological target: T1, GFP-R3A (human) (UniProt Q6IN85); assay: co-IP; GFP-trap magnetic agarose beads on cleared lysates of HEK293 cells co-transfected with GFP-R3A or GFP-R3B and Flag-CNTRB^180-903aa variants; 50 mM Tris pH 7.6, 50 mM NaCl, 0.1% NP-40; 90 min at 4 °C; immunoblot with anti-FlagM2 and anti-GFP
T1 sequence: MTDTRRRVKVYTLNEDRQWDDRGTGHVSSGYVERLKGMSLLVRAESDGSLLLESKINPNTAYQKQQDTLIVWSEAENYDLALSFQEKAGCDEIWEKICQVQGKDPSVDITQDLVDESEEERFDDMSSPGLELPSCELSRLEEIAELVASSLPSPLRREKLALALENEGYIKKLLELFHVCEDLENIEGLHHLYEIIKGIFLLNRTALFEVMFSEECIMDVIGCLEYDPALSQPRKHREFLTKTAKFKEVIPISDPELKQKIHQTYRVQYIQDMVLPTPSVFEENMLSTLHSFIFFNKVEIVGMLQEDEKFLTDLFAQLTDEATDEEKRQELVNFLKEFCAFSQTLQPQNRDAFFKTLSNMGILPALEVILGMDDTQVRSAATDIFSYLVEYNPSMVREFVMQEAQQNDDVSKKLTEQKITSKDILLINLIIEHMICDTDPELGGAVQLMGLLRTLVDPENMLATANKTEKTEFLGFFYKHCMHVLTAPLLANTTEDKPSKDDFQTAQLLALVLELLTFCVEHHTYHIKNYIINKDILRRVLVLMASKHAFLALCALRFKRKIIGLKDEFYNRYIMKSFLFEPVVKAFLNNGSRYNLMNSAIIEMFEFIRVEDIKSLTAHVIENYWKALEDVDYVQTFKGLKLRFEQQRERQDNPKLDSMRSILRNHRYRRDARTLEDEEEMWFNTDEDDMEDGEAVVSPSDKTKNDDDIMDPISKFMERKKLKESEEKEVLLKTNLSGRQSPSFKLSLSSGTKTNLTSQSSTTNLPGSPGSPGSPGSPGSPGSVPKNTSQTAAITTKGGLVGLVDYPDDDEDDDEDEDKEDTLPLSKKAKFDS

GFP-R3B (human) = biological target: T2, GFP-R3B (human) (UniProt Q5MIZ7); assay: as above
T2 sequence: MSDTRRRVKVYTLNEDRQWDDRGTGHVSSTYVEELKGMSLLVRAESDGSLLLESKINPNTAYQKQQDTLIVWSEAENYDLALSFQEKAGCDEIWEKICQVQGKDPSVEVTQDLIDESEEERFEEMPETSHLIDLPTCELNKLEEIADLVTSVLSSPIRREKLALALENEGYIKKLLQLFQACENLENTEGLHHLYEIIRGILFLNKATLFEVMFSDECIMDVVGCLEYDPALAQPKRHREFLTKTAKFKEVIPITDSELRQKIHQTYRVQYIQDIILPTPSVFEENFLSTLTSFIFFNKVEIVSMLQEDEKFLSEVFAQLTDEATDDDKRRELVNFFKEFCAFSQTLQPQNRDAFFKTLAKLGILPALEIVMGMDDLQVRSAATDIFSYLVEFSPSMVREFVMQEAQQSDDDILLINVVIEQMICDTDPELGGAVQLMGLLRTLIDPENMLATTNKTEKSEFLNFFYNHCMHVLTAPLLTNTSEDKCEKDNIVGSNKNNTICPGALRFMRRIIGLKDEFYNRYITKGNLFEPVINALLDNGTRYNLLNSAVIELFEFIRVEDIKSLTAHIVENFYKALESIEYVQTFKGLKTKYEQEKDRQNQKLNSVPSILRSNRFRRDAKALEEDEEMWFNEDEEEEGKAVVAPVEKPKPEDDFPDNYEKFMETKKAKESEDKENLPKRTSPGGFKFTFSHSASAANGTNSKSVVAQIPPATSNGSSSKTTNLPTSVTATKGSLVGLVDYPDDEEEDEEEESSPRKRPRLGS

[1] = biological target: T3, GST-R3A (glutathione S-transferase fused recombinant full-length PPP4R3A) (human) (UniProt Q6IN85); assay: pull-down; GST-IVTT assay: GST-R3A or GST-R3B immobilized on glutathione beads (bait), 35S-methionine-labeled CNTRB from IVTT (prey); 50 mM HEPES pH 7.5, 150 mM NaCl, 2 mM MgCl2, 1 mM EGTA, 1 mM DTT, 0.1% Triton X-100, 0.5% BSA; 4 °C, 2 h; autoradiography; only the target purified
T3 sequence: T1 sequence

[2] = biological target: T4, GST-R3B (glutathione S-transferase fused recombinant full-length PPP4R3B) (human) (UniProt Q5MIZ7); assay: as above
T4 sequence: T2 sequence

- binding (GFP-R3A (human)): binds
- binding (GFP-R3B (human)): binds
B1: Flag-CNTRB^180-903aa-S781A (domain or fragment, UniProt Q8N137-1 180-903)
chain: PPDFQGLRDALDSEHTRRKHCERHIQSLQTRVLELQQQLAVAVAADRKKDTMIEQLDKTLARVVEGWNRHEAERTEVLRGLQEEHQAAELTRSKQQETVTRLEQSLSEAMEALNREQESARLQQRERETLEEERQALTLRLEAEQQRCCVLQEERDAARAGQLSEHRELETLRAALEEERQTWAQQEHQLKEHYQALQEESQAQLEREKEKSQREAQAAWETQHQLALVQSEVRRLEGELDTARRERDALQLEMSLVQARYESQRIQLESELAVQLEQRVTERLAQAQESSLRQAASLREHHRKQLQDLSGQHQQELASQLAQFKVEMAEREERQQQVAEDYELRLAREQARVCELQSGNQQLEEQRVELVERLQAMLQAHWDEANQLLSTTLPPPNPPAPPAGPSSPGPQEPEKEERRVWTMPPMAVALKPVLQQSREARDELPGAPPVLCSSSSDLSLLLGPSFQSQHSFQPLEPKPDLTSSTAGAFSALGAFHPDHRAERPFPEEDPGPDGEGLLKQGLPPAQLEGLKNFLHQLLETVPQNNENPSVDLLPPKSGPLTVPSWEEAPQVPRIPPPVHKTKVPLAMASSLFRVPEPPSSHAQGSGPSSGSPERGGDGLTFPRQLMEVSQLLRLYQARGWGALPAEDLLLYLKRLEHSGTDGRGDNVPRRNTDSRLGEIPRKEIPSQAVPRRLATAPKTEKPPARKKSGHPAPSSMRSRGGVWR

- binding (GFP-R3A (human)): binds
- binding (GFP-R3B (human)): binds
B2: Flag-CNTRB^180-903aa-S781D (domain or fragment, UniProt Q8N137-1 180-903)
chain: B1 chain with A602D

- binding (GFP-R3A (human)): binds
- binding (GFP-R3B (human)): binds
B3: Flag-CNTRB^180-903aa (domain or fragment, UniProt Q8N137-1 180-903)
chain: B1 chain with A602S

- binding [1]: binds
- binding [2]: binds
B4: 35S-methionine-labeled wild-type Centrobin, full length (protein, UniProt Q8N137-1 1-903)
chain: MATSADSPSSPLGAEDLLSDSSEPPGLNQVSSEVTSQLYASLRLSRQAEATARAQLYLPSTSPPHEGLDGFAQELSRSLSVGLEKNLKKKDGSKHIFEMESVRGQLQTMLQTSRDTAYRDPLIPGAGSERREEDSFDSDSTATLLNTRPLQDLSPSSSAQALEELFPRYTSLRPGPPLNPPDFQGLRDALDSEHTRRKHCERHIQSLQTRVLELQQQLAVAVAADRKKDTMIEQLDKTLARVVEGWNRHEAERTEVLRGLQEEHQAAELTRSKQQETVTRLEQSLSEAMEALNREQESARLQQRERETLEEERQALTLRLEAEQQRCCVLQEERDAARAGQLSEHRELETLRAALEEERQTWAQQEHQLKEHYQALQEESQAQLEREKEKSQREAQAAWETQHQLALVQSEVRRLEGELDTARRERDALQLEMSLVQARYESQRIQLESELAVQLEQRVTERLAQAQESSLRQAASLREHHRKQLQDLSGQHQQELASQLAQFKVEMAEREERQQQVAEDYELRLAREQARVCELQSGNQQLEEQRVELVERLQAMLQAHWDEANQLLSTTLPPPNPPAPPAGPSSPGPQEPEKEERRVWTMPPMAVALKPVLQQSREARDELPGAPPVLCSSSSDLSLLLGPSFQSQHSFQPLEPKPDLTSSTAGAFSALGAFHPDHRAERPFPEEDPGPDGEGLLKQGLPPAQLEGLKNFLHQLLETVPQNNENPSVDLLPPKSGPLTVPSWEEAPQVPRIPPPVHKTKVPLAMASSLFRVPEPPSSHSQGSGPSSGSPERGGDGLTFPRQLMEVSQLLRLYQARGWGALPAEDLLLYLKRLEHSGTDGRGDNVPRRNTDSRLGEIPRKEIPSQAVPRRLATAPKTEKPPARKKSGHPAPSSMRSRGGVWR
modifications: 35S-methionine-labeled

- binding [1]: no binding
- binding [2]: no binding
B5: 35S-methionine-labeled CNTRB-ARVA, full length (protein, UniProt Q8N137-1 1-903)
chain: B4 chain with F771A, P774A
modifications: 35S-methionine-labeled

- binding [1]: binds
- binding [2]: binds
B6: 35S-methionine-labeled CNTRB-S781D, full length (protein, UniProt Q8N137-1 1-903)
chain: B4 chain with S781D
modifications: 35S-methionine-labeled

- binding [1]: binds
- binding [2]: binds
B7: 35S-methionine-labeled CNTRB-S781A, full length (protein, UniProt Q8N137-1 1-903)
chain: B4 chain with S781A
modifications: 35S-methionine-labeled
